From paper PMC12136788
This is one part of the list.

B1: chr1:31179744:31181702:-|three_prime_utr|ENSG00000084628|control|control|control (ssRNA)
RNA: GGGAGUUCUACAGUCCGACGAUCUCAGACCCAUCCCAUCCCACCACACUCACUCACCAGCUCUGGGGAAAGCUACUGUGAACUAGGAGCAGGAUUCCUGGGUUCUAAUCGCAGGUCCAUCACUGACUGUGACGUCUAGCAAAGCAACAGAGGAUUGAGCAUCA
B2: chr10:117284474:117284575:-|CDS|ENSG00000165650|msi1|total|mutant (ssRNA)
RNA: GGGAGUUCUACAGUCCGACGAUCAUUGCAUUGUGGUGCAGGGAUCCUUUCAAGUUGGGAGGUCUCAUCUGUUUGGGGCAUGUCCGUUUAAAACUUGAAGAUGUGGCUUCCGGAUGCCCCGCUACAUCAAACACGGAAUACCUUCAACAGAGGAUUGAGCAUCA
B3: chr1:22530103:22530204:+|3pUTR|ENSG00000184677|msi1|FALSE|unique (ssRNA)
RNA: GGGAGUUCUACAGUCCGACGAUCCAUGUAUAGAGUGGGCAGGCGGUUCCAGGGAGACAAGCAGCAUGUUAUUAAAUUGGGCCUAGGCAGUUGGACGAUAAUGGAGAAAAAGCAGGGAUGCUAUAAUGAGUCCUCCCCAAGGGUCAACAGAGGAUUGAGCAUCA
B4: chr19:35125195:35125507:-|CDS|ENSG00000153902|control|control|control (ssRNA)
RNA: GGGAGUUCUACAGUCCGACGAUCCUCGCGCGGUGCCCACGUCUUCCAGCCACUGCUCAUCGCCAGGGACCAGCUGGCCAUCCUAGGCAGCGACUUCGCCUUCAGCCAGGUCCUCCGCCUUGAGCCUGACAAGGGGCUCCUGGACAACAGAGGAUUGAGCAUCA
B5: chr15:55376998:55377117:-|CDS|ENSG00000260916|unk|total|mutant (ssRNA)
RNA: GGGAGUUCUACAGUCCGACGAUCUAUCUAUAUUGGAACUGCCAGUGAUGAUUCUGAUAUUGUUACCCUUGAGCCACCUAAGUCCGAAGAAAUUGGAAAUCAAGAAGUUGUCAUUGUUGAAGAAGCACAGAGUUCAGAAGACUUCAACAGAGGAUUGAGCAUCA
B6: chr8:96261867:96261970:+|5pUTR|ENSG00000156471|unk|total|mutant (ssRNA)
RNA: GGGAGUUCUACAGUCCGACGAUCUCCUUCCCUCUGCUCCCAGCCUUUGCUGGGCGCCAGACCCGGCUUUGCCGUCCGGCUAUCCGCCUACUGUGGCCCGUCACCCCCGGGGUCCCGGCCUUCUCGGGCUGGGGCCGCCGCCACCAACAGAGGAUUGAGCAUCA
B7: chr8:97276997:97277102:-|CDS|ENSG00000180543|unk|FALSE|unique (ssRNA)
RNA: GGGAGUUCUACAGUCCGACGAUCAUCCCGGGCUUCUGGGGGCAAGCAUUUCAGAACCAUCCCCAGCUAGCAUCCUUUCUGAAUAGCCAAGAGAAAGAGGUACUGAGCUACUUAAACAGCUUGGAAGUGGAAGAGCUCGGCCUUCAACAGAGGAUUGAGCAUCA
B8: chr10:29523788:29523889:-|CDS|ENSG00000197321|unk|FALSE|unique (ssRNA)
RNA: GGGAGUUCUACAGUCCGACGAUCAAUGCAAGUGCCACUGACUAUAAGUUUUCUUCUUCAAUAGAAAAUUCGGACUCUCCAGUUAGAAGCAUUCUGAAAUCGCAAGCUUGGCAGCCUUUGGUAGAGGGUAGCGAGAACAAGGGACAACAGAGGAUUGAGCAUCA
B9: ENSG00000107863:be:win_4301|CDS|ENSG00000107863|bound_else_gene|NA|bound_elsewhere_windowed (ssRNA)
RNA: GGGAGUUCUACAGUCCGACGAUCAAGAUGAACUGGACAAUGUAUUUUUUAAGAAAGAAAAUGUGGAACAGUGUCACAAUGAUACUAAAGAGGAGUCCAAAAAAGAAAGUGAGACACUGGGCAGAAAACAGAAGAUCAUCAUUGCAACAGAGGAUUGAGCAUCA
B10: chr1:153662446:153662560:-|CDS|ENSG00000143621|unk|total|mutant (ssRNA)
RNA: GGGAGUUCUACAGUCCGACGAUCAAUCACCUUUUUCUCUUUCCCCGAUCUUGCUUCUGAAAUAUCUACCUGGGAUGGAGUGACCGUAACACCUUCAGAAAAGGCUUAUGAGAAGCCACCAGAGAAGAAGGAAGGAGAGGAAGACAACAGAGGAUUGAGCAUCA
B11: ENSG00000107863:be:win_101|CDS|ENSG00000107863|bound_else_gene|NA|bound_elsewhere_windowed (ssRNA)
RNA: GGGAGUUCUACAGUCCGACGAUCCUGUAUCACUGUCUGAAGAUGAAACAUUCUCCUGGCCAGGUCCCAAAACAGUUACGUUGAAAAGAACAUCUCAAGGCUUUGGUUUUACAUUAAGACAUUUUAUUGUUUAUCCCCCAGAGUCAACAGAGGAUUGAGCAUCA
B12: ENSG00000197321:stop:overlap|stop_codon|ENSG00000197321|stop_codon|NA|stop_codon (ssRNA)
RNA: GGGAGUUCUACAGUCCGACGAUCAGUUCCAUGAGGGGGAUGCCUAUGUGGUCAAGUGGAAGUUCAUGGUGAGCACGGCAGGUUAGUGAGCGCUUGUGGUUUUUUCCAGCUGAAAGAGGCUGGCCCGGCAGCCCUGCGGGAGCCCAACAGAGGAUUGAGCAUCA
B13: chrX:120627021:120627135:-|CDS|ENSG00000171155|unk|FALSE|unique (ssRNA)
RNA: GGGAGUUCUACAGUCCGACGAUCUUGAAGGGUGUGAUGCUUGGAAGCAUUUUCUGUGCUUUGAUCACUAUGCUAGGACACAUUAGGAUUGGUCAUGGAAAUAGAAUGCACCACCAUGAGCAUCAUCACCUACAAGCUCCUAACCAACAGAGGAUUGAGCAUCA
B14: ENSG00000124766:be:win_2451|3pUTR|ENSG00000124766|bound_else_gene|NA|bound_elsewhere_windowed (ssRNA)
RNA: GGGAGUUCUACAGUCCGACGAUCAAAAAAGAAAAAAAAAAGAUUUUUUUCUUCUCUUAAUCGGAAUCGUGAUGGUGUUGGAUUAUUUCAAUGGUGGGGUUAAUAUAGCAUGUUAUCCUGUCUAUCUUUUAAAGAUUUCUGUAUCAACAGAGGAUUGAGCAUCA
B15: ENSG00000107863:be:win_2151|CDS|ENSG00000107863|bound_else_gene|NA|bound_elsewhere_windowed (ssRNA)
RNA: GGGAGUUCUACAGUCCGACGAUCUUUACAAGAGGCUGAAACUGAGCAAUCAGAUACUUUAGAUAAUAAAGAAGCUGUCAUCCUAAGGGAAAAACCUCCAUCUGGACGCCAGACACCGCAGCCUUUAAGGCAUCAGUCUUACAUCAACAGAGGAUUGAGCAUCA
B16: chr6:21598408:21598509:+|3pUTR|ENSG00000124766|msi1|FALSE|bound_elsewhere (ssRNA)
RNA: GGGAGUUCUACAGUCCGACGAUCCGUUAAGGGUUUUUGUUUUUAAACUUUUUUUUGCCAUCCAUCCUGUGCAAUAUGCCGUGUAGAAUAUUUGUCUUAAAAUUCAAGGCCACAAAAACAAUGUUUGGGGGAAAAAAAAGAAAACAACAGAGGAUUGAGCAUCA
B17: chr8:47773456:47773635:-|3pUTR|ENSG00000253729|msi1_unk|FALSE|overlapping (ssRNA)
RNA: GGGAGUUCUACAGUCCGACGAUCGUUUUUUCCUUUCAUUUUAUUCUCUUCUAGUUUUGACAUUUUAUGAUAGAUUUGCUCUCUAGAAGGAAACGUCUUUAUUUAGGAGGGCAAAAAUUUUGGUCAUAGCAUUCACUUUUGCUACAACAGAGGAUUGAGCAUCA
B18: chr15:78897113:78897311:+|3pUTR|ENSG00000185787|unk|total|mutant (ssRNA)
RNA: GGGAGUUCUACAGUCCGACGAUCUAACAAUUGAUGUUUGUUUUCUGUUUGAUUUUAAACAGAGAAAAAAUAAAAGGGGGUAACCGCUCCUUUUUUCUUCUUUCUUUUUUUUUUUCAUUUCAAAAUUGCUGCCAGUGUUUUCAACAACAGAGGAUUGAGCAUCA
B19: chr2:25232207:25232317:-|3pUTR|ENSG00000119772|unk|FALSE|unique (ssRNA)
RNA: GGGAGUUCUACAGUCCGACGAUCGGUGAGGGCCCGACGGGCAGGUGCUUGCCUGGGUAGAUGGGGUGUAGAUAUGUGGCAUAUAGAGAUAUAUAUUUUAUAAUGGGAGGGGGGAUGGCACCUCCUGGGACUGGUAGAGCUGGGCAACAGAGGAUUGAGCAUCA
B20: chr5:10971835:10973713:-|three_prime_utr|ENSG00000169862|control|control|control (ssRNA)
RNA: GGGAGUUCUACAGUCCGACGAUCGCAUGUGCAUGCAUACCACAAGACAUUUCUUUCUGUUUUGUUUUUUUCUCCUGCAAAUUUAGUUUGUUAAAGCCUGUUCCAUAGGAAGGCUGUGAUAACCAGUAAGGAAAUAUUAAGAGCCAACAGAGGAUUGAGCAUCA
B21: chr10:11920118:11920232:-|3pUTR|ENSG00000151461|unk|FALSE|unique (ssRNA)
RNA: GGGAGUUCUACAGUCCGACGAUCGUAGUAUAUUUAGUCGGAGAGCACAUCUGUAUGCGACAACUUGAUUACAUCUUUUUUUCUAGCUAUUUUGCAUUUUUUCUUUUACCAUGUUUCAGUUUCUGCAUGUAGAUUUAAAUAAAACAACAGAGGAUUGAGCAUCA
B22: chr16:18805221:18805325:-|3pUTR|ENSG00000157106|unk|FALSE|bound_elsewhere (ssRNA)
RNA: GGGAGUUCUACAGUCCGACGAUCAAGAAUUCUAUGUUCUGAAAUGCACACUUUUAGAAUGUUUUUCUUUGAAAACAGGCUAAUAGUUUUUUCUUUUUUUGACAAAGUUUCAGCUCCUCUUUAAAGUUAUUGUGUCAUUUUUCUCAACAGAGGAUUGAGCAUCA

target: MSI1 full-length (mouse, UniProt Q61474 1-362); experiment: nsRBNS (natural sequence RNA bind-n-seq); RBNS binding buffer (assumed for nsRBNS): 25 mM Tris pH 7.5, 150 mM KCl, 3 mM MgCl2, 0.01% Triton X-100, 500 ug/ml BSA, 20 U/ml SUPERase-In, 4 C; UNK is unkempt and MSI1 is Musashi-1; names of the RNAs are library labels; protein concentration not given here; high values mean tight binding
Chain of UniProt Q61474 (Q61474 whole entry): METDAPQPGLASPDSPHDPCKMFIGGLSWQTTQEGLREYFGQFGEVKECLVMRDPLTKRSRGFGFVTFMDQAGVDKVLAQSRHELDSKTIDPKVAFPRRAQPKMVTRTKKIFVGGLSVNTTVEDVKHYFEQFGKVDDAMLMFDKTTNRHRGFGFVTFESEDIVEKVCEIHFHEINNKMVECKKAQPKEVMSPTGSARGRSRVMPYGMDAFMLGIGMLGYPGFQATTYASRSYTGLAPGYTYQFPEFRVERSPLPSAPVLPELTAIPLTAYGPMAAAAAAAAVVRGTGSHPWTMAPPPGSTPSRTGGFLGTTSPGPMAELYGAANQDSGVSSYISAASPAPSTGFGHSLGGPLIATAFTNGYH

Row | Binder | binding signal
1 | B1 | 0.495 enrichment R
2 | B2 | 0.282 enrichment R
3 | B3 | 0.983 enrichment R
4 | B4 | 0.388 enrichment R
5 | B5 | 0.246 enrichment R
6 | B6 | 0.411 enrichment R
7 | B7 | 0.434 enrichment R
8 | B8 | 0.615 enrichment R
9 | B9 | 0.484 enrichment R
10 | B10 | 0.401 enrichment R
11 | B11 | 0.198 enrichment R
12 | B12 | 0.89 enrichment R
13 | B13 | 0.458 enrichment R
14 | B14 | 0.433 enrichment R
15 | B15 | 0.441 enrichment R
16 | B16 | 0.561 enrichment R
17 | B17 | 7.45 enrichment R
18 | B18 | 0.476 enrichment R
19 | B19 | 2.94 enrichment R
20 | B20 | 2.18 enrichment R
21 | B21 | 23.3 enrichment R
22 | B22 | 0.498 enrichment R
